Data published in PMC4336329 (PLoS ONE, 2015).
The campaign covered roughly 310,000 compounds. About 2,200 (0.71%) showed an effect of 50% or more. The effect is printed as a negative number. The list shows a part of the results.

biological target: human ether-à-go-go-related gene (hERG) potassium channel (human, UniProt Q12809); assay: primary screen, population patch clamp on CHO cells stably expressing hERG
Sequence (Q12809 whole entry, looked up): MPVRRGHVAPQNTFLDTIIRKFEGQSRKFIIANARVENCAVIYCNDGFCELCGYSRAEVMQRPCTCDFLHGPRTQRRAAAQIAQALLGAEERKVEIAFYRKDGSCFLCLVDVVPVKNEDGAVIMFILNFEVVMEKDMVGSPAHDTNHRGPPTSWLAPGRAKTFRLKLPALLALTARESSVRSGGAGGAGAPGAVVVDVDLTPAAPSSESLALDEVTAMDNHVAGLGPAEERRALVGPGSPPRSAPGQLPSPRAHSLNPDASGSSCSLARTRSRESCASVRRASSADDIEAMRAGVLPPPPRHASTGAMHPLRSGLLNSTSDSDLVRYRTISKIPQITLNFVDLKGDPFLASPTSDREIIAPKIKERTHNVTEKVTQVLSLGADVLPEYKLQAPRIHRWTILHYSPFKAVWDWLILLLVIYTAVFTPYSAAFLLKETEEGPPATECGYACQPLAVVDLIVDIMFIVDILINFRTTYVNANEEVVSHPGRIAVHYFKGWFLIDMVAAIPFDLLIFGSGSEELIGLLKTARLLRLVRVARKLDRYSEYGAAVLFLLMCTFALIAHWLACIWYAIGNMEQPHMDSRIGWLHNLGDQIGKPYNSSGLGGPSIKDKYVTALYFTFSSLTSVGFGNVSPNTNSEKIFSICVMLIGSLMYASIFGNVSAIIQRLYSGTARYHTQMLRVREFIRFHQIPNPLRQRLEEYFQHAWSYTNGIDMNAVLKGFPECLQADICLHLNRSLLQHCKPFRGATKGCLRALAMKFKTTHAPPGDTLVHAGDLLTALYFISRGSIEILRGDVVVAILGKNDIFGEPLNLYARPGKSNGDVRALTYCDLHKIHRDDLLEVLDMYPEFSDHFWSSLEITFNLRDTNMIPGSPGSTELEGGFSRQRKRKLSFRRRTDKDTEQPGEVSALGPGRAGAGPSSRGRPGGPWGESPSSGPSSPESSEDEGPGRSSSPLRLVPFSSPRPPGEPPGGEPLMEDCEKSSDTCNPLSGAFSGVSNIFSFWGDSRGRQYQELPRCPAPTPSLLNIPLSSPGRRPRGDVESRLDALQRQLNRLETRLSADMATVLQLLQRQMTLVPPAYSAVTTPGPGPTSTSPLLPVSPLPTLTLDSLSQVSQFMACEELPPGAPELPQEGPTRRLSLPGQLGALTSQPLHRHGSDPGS

Point of comparison: `O=C(CSCc1ccccc1)N1CCN(S(=O)(=O)c2ccc(F)cc2)CC1`, “hERG current change (%, negative = inhibition) at 1uM” value 13.4%. Against it:
- Cc1cc(NC(=O)C2CC(c3cccc(Br)c3)=NO2)no1 (stereo not shown) — lower, -4.71%
- CCOC(=O)N1CCN(C(=O)CSc2nnc(-c3ccc(C)c(C)c3)o2)CC1 — lower, -3.33%
- Cc1cc(S(=O)(=O)N2CCOCC2)ccc1NC(=O)c1ccc(F)cc1 — higher, 13.8%
- O=C(NCc1cccs1)C1CCCN(c2ncccn2)C1 (stereo not shown) — lower, 3.61%
- Cc1ccc(CN(C(=O)c2cccs2)C2CCS(=O)(=O)C2)cc1 (stereo not shown) — lower, -8.68%
- CCN(CC)c1ccc2cc(-c3nc4ccccc4n3C)c(=O)oc2c1 — lower, 12%
- S=c1[nH]nc(-c2ccco2)n1/N=C/c1cccc(Cl)c1 — higher, 13.8%
- CC1CC(=S)Nc2ccccc2N1C(=O)Nc1ccccc1 (stereo not shown) — lower, 8.73%
- O=C(Nc1nc(-c2nc3ccccc3s2)cs1)c1ccco1 — lower, 8.54%
- C[C@H](NC(=O)C1CCN(C(=O)[C@H](Cc2ccccc2)NC(=O)OC(C)(C)C)CC1)C(=O)O — lower, 5.32%
- Nc1nc2n(n1)C(c1ccccc1)CC(c1ccc(F)cc1)N2 (stereo not shown) — lower, -2.09%
- CCOC(=O)C(C)Sc1cc(CS(=O)(=O)c2ccccc2)nc(-c2ccccc2)n1 (stereo not shown) — higher, 19.7%
- COc1cc(C(=O)Nc2cc(-c3nc4cc(C)ccc4o3)ccc2C)cc(OC)c1OC — higher, 14%
- CC(C)C(=O)N1CCC2(CC1)Oc1ccc(F)cc1C(=O)C21CC(c2ccccc2)=NO1 (stereo not shown) — higher, 15.7%
- O=C(NC1CC1)C1=C[C@H](c2ccc3c(c2)OCO3)C[C@H](OCc2ccc(CO)cc2)O1 — lower, 5.59%
- COCCNC(=O)c1cccc(C)c1[N+](=O)[O-] — lower, 7.56%
- O=C(CCCOc1ccccc1)N1CCCc2ccccc21 — lower, 4.28%
- O=C(NCCCn1ccnc1)c1cc2ccccc2o1 — lower, 2.15%
- CC1CC(OCC(O)CN2CCN(Cc3ccccc3)CC2)CC(C)(C)C1.Cl (stereo not shown) — lower, -7.49%
- CNC(=S)N(CCc1c(C)[nH]c2ccc(OC)cc12)Cc1cccnc1 — lower, 8.56%
- Cc1nn(-c2ccccc2)c(N2CCCC2)c1/C=N/n1cnc2scc(-c3ccccc3)c2c1=O — lower, -5.57%
- COc1cccc(C(=O)C2=NN(C(C)=O)CC2c2ccco2)c1 (stereo not shown) — lower, 9.67%
- Cc1ccc(NC2CCCN(C(=O)c3ccc(C)c(N4CCNC4=O)c3)C2)cc1C (stereo not shown) — lower, 8.39%
- Cc1ccc(N2CCN(S(=O)(=O)c3nnc(NC(=O)c4ccco4)s3)CC2)cc1 — higher, 14.8%
- Cc1cc(NC2CCCCC2)nc2ccccc12 — lower, -2.4%
- CCCCOc1cccc(NC(=O)CSc2nccn2C)c1 — lower, -6.6%
- CSc1ccc(NC(=O)Nc2cccn(Cc3ccccc3)c2=O)cc1 — lower, 8.6%
- CNC(=O)CSc1nc2c(c(=O)n(C)c(=O)n2C)n1Cc1ccc(C)cc1 — lower, -8.8%
- COc1ccccc1C(=O)Nc1ccc2c(c1)nc1n2CCN(C2CCCCC2)C1 — lower, 0.823%
- COc1ccc(OC)c(NC(=O)c2cc3c(Cl)nc4ccccc4c3s2)c1 — lower, 10.1%
- CCOC(=O)C1CCN(C(=O)c2c(-c3c(Cl)cccc3Cl)noc2C)CC1 — lower, 0.511%
- OC1CCC(NC(=S)Nc2ccc(SC(F)F)cc2)CC1 (stereo not shown) — lower, 6.06%
- C[C@@H]1OC(Nc2ccc(N=Nc3ccccc3)cc2)[C@H](O)[C@H](O)[C@H]1O (stereo partly shown) — higher, 18.2%
- CC1CCN(c2ccc([N+](=O)[O-])cn2)CC1 — higher, 15.7%
- C[C@@H](NC(=O)c1nc[nH]c1C(=O)N[C@@H](CCCCNC(=O)OC(C)(C)C)C(=O)OC(C)(C)C)c1ccccc1 — lower, 10.9%
- CCCCN(CC(=O)NCCOC)C(=O)Cn1nnc2ccccc21 — lower, 9.36%
- CCc1ccc(C2C(C#N)=C(N)C(C#N)(C#N)C3=CCC(C(C)(C)C)CC32)cc1 (stereo not shown) — lower, 12.7%
- CCOc1ccc(C(=O)NC2CC(C)(C)NC(C)(C)C2)cc1.Cl — lower, 10.1%
- CC(=O)c1ccc(NC(=O)CNC2CCCCC2)cc1.Cl — lower, 10.3%
- Cc1ccc(NC(=S)NCCN2CCOCC2)cc1F — lower, 3.11%
- COc1ccccc1NC(=O)CCc1nnc2ccc(N3CCC4(CC3)OCCO4)nn12 — lower, 8.79%
- O=C(O)c1cnc(-c2ccccc2)nc1Sc1ccc(Cl)cc1 — lower, 6.55%
